We go through 73 sequences from article PMC10726135.

This is one part of the list. At the low end of the ranking the order means little. Measured with an extract: partners may take part in the binding.

The target of this assay is T1, HNF4alpha8 (COS-7 nuclear extract) (UniProt P41235-5).
T1 sequence: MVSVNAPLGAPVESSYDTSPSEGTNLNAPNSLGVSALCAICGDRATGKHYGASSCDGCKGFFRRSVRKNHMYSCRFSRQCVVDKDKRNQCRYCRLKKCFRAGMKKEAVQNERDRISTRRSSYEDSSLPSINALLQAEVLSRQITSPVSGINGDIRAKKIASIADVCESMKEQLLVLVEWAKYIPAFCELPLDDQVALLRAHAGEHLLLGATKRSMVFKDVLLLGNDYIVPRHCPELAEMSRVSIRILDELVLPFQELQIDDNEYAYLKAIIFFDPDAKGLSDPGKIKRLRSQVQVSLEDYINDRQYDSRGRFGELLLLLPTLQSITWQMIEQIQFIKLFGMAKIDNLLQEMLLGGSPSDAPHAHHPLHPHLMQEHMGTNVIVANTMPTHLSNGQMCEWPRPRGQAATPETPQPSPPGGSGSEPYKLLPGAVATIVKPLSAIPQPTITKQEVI
Description: protein-binding microarray. The conditions noted are these: COS-7 nuclear extract on double-stranded Agilent 4x180k PBM; binding buffer, salt, pH and temperature not given; high values mean tight binding; double strand, one strand shown; sequences stand for … in …GCCTAGGGAGATTAGAGTATCGGTCGA
Turning to CTTTAGATTCTTACAGGCAATTGATAATGA, the binding signal (log2 normalized intensity) stood at 0.6.
Then TTTTCTGCTGCATGCCACACATTGCTGCCA, with -1.26.
The same measure for TCGTCCAGTTACTGAAAGGGAACCCTAATC: -1.14; for CAGGCATTAACCCTTTAGTGCCTGGATCTT: 1.09; for ATCCCTGCAGCCCACAGCCCGCTGTGCCTG: -1.43.
Turning to AAATTGCTCAGTGCCTTCTCTAATGACTGA, the binding signal (log2 normalized intensity) was -1.18.
The same measure for TGTCAGACAAACAGACTTCACACTAGAAGA: -1.35.
Then CTCCCTGCATTCCATTTCTGCCCCTTGCTC, with 4.04.
The same measure for AGGCTTCTAGAAGAGGTTAAAGACCTTTGG: 4.82; for ACAAGGGTACCAACAGGTCCAAGGTTCAGA: 5.
In the case of ATAAAGCAGGGAGAGTTGCACCCAGGCCGT, the binding signal (log2 normalized intensity) was -1.4.
The same measure for TCAAGGATGTTTATACAGCCTTGGAAGACA: -1.41; for TCTTTCTCCAACTGCTCCTCTTCAACTGAT: 0.58; for AGATGAAAGCTTCTGCGGAAATAATTGATT: -1.05.
Then TATGATCTTTCATTCCTATTGTCCCATCTC, with 2.12.
The same measure for GGAGGCACTCATGGTGTTTGCTTTGTGAAG: 0.272; for AAGACCCAAGGCGTATGAAGCTTTGACCCT: 5.29.
Regarding AACCAGAGAATCTCTCATTTCAAGGCTGGC, the binding signal (log2 normalized intensity) is -1.35.
Turning to CCACCCCCTCCACCCCTGCCTTTCATTCTC, the binding signal (log2 normalized intensity) stood at 4.71.
Then GGGACAGCACTGGCATGCAGCAGGGGAATG, with -1.23; and GATGAGAAACTTATTGTGAACTGGAGCAAA, with 0.122.
Turning to ACGTCAGAACTGTCCTTTAACCTCCCTGCA, the binding signal (log2 normalized intensity) stood at 2.93.
The same measure for TCTTCCAGTTCATTTCTGTATCCCTGTTAT: 1.97.
The same measure for AAAAGCAGCCATTAAGAAGCAAGTGTTTAA: -1.25; for GCACTATTATCCCCCTATCCCAAGACATCA: 4.64; for AATAAAGGAACTTACGAAGATAAATCAGAA: -1.03.
The same measure for TTTGTCACTGCAAATGATGTCTCTCATTGG: 0.572; for CCAGCCCACTTACCACCCACAGAGGGGGTT: -1.3; for AAGAAGAGCTCAGTCACAGCAGTGGACTTT: 7.41.
On to CCCATTAGAACAAAGATCAAAGCAGTATCA, for which the binding signal (log2 normalized intensity) was -0.868.
In the case of GACTGGGTGAGGAAGGGTATGCATGGAATG, the binding signal (log2 normalized intensity) was 0.981.
In the case of CGGTGTATGCTCTCAGTGCTAACACGTGGC, the binding signal (log2 normalized intensity) was -0.551.
The same measure for TGAAGGTGAATTTCAAGAATCTAATCAGGC: -1.34.
CAAGGTACAGAGAGTTTAAGTAACTTCTCA: the binding signal (log2 normalized intensity) was -1.
Consider AAAGTGCAACTACAAGGAGCAGCCTAGTAA, for which the binding signal (log2 normalized intensity) was -1.37.
The same measure for TGACCACGGGGGCCGCTCTCCCTCCAGGCC: -1.35; for GTCAGATTTTATTTACACACAGGGAGATGG: -1.09; for GAGTGGTGACTGAAGTCCAACCCTCCGTTT: 1.92.
Then AATAGTAAAGTATGTTTGTGCTGGTTACTA, with 0.9; and GGTCGGGCGCGCGGGCCGGGAGGGGGACGC, with -1.28; and TTTCCCTGCCAGTTCCATGTAATCCCATGC, with -0.777.
For GCCTTGCTTATCTGGGAGGGGGAGGTTTTG, the binding signal (log2 normalized intensity) came out at 0.305.
TGGTGTGAACCAGGGTTAAGGTTTTGTAAC: the binding signal (log2 normalized intensity) was 1.59.
For GGTGATTGGTGAGTCTTAGGGAGGGGCCAG, the binding signal (log2 normalized intensity) is -1.11.
Regarding AGCTTGGCCAAAGTACGCTCCACCCCTCAG, the binding signal (log2 normalized intensity) amounted to 3.36.
Then TAAGAGTGAACTCTGACCATGCCTATAAAT, with 2.44.
Turning to ATCTCTCCTAGAGAAAGGGGCTTAGGGAGG, the binding signal (log2 normalized intensity) was -1.34.
Regarding CCTGTGGGGGAGGTGCAGAGAGGGGCAGGG, the binding signal (log2 normalized intensity) was -1.34.
The same measure for AGCAGGGCGTGGACTTCGCTCCGCCGCTAG: 4.76.
Then AGGGCAAAGGTCACCAGCTAAGCTGTTACT, with 5.83.
On to ACAGTCCAGTGACTATCTGCTACTTAAGAT, for which the binding signal (log2 normalized intensity) was -1.33.
Then GGGAGCTCCCTCTGTTGGTGGCACAGGGAA, with -1.17; and GTGGGAGGTGAGGAAAACGGAGACAGAAAC, with -1.28.
The same measure for GGGGTGGGGACCAGTGGGGGGAAGCTCTGT: -1.19; for TCATCTGAACTCTGACCAACGCCTCCCTCC: 2.6.
The same measure for ATGGAGAGTGGAAGACTGCACCAAAATAAA: -1.32; for ACTACCTCAAAGTTTTGTTATCTCTGCTTG: 0.834; for TGAAAAACACTGGATAAAGTCCATATTCTT: 3.08.
As to CACACCCCAAAAGGTCAATCTGGATTGTAC, the binding signal (log2 normalized intensity) came to 3.66.
Regarding TCTACTCCCTGTTCTTACACCTGCTCCCCT, the binding signal (log2 normalized intensity) is 2.97.
Take TCGGGACAAGAGGAATGTTCATTCATTCAC: the binding signal (log2 normalized intensity) was -1.26.
As for GATTGACTCAGGCATTCTGACCTTTGTCTC, the binding signal (log2 normalized intensity) was 7.94.
For the sequence TTCATCTGACTGGAAGAGCCTGCAAGGGAG, the binding signal (log2 normalized intensity) is -1.31.
The same measure for TTCTTAGAGAGTTGGGCAAGACTCGTGAAA: 1.32; for GTCTATGTGTGCTTTCTTCATTAACTCTTG: 0.169; for TGCGGCTTCTCATACTACTGTACTTTGCTC: 5.94.
For the sequence GAGCATTTCTCTCCTAAGCAGGACAGCAGA, the binding signal (log2 normalized intensity) was -1.24.
The same measure for TCAGCCCACAGGTCAATCCAGGTTGCTGCC: 0.332; for GAACAATGTCTAATGGTGGAATTTCAGTCA: 1.08.
CAGCATCTTCACCGTAAAGCCACCCCTTTC: the binding signal (log2 normalized intensity) turned out to be 2.59.
The same measure for ATACTTTGCTCTCCAAATTGGGGCCAACAG: -0.406.
For the sequence ATTAGAGCACAATGTGGGGAGCACATGGCA, the binding signal (log2 normalized intensity) was -1.08.
Take TTCATTCTTTAAGGACCACATCAAAGGTCA: the binding signal (log2 normalized intensity) amounted to 5.32.
